Experimental findings from US9266939B2, “Compositions comprising natriuretic peptides and methods of use thereof” (Alexion Pharmaceuticals, Inc., priority 2010, dated 2016) are described below.

“Also recorded” adds a separate entry of the source.

In data set [1] the target is T1, NPR-B (Homo sapiens, UniProt P20594).
T1 sequence (P20594 23-1047): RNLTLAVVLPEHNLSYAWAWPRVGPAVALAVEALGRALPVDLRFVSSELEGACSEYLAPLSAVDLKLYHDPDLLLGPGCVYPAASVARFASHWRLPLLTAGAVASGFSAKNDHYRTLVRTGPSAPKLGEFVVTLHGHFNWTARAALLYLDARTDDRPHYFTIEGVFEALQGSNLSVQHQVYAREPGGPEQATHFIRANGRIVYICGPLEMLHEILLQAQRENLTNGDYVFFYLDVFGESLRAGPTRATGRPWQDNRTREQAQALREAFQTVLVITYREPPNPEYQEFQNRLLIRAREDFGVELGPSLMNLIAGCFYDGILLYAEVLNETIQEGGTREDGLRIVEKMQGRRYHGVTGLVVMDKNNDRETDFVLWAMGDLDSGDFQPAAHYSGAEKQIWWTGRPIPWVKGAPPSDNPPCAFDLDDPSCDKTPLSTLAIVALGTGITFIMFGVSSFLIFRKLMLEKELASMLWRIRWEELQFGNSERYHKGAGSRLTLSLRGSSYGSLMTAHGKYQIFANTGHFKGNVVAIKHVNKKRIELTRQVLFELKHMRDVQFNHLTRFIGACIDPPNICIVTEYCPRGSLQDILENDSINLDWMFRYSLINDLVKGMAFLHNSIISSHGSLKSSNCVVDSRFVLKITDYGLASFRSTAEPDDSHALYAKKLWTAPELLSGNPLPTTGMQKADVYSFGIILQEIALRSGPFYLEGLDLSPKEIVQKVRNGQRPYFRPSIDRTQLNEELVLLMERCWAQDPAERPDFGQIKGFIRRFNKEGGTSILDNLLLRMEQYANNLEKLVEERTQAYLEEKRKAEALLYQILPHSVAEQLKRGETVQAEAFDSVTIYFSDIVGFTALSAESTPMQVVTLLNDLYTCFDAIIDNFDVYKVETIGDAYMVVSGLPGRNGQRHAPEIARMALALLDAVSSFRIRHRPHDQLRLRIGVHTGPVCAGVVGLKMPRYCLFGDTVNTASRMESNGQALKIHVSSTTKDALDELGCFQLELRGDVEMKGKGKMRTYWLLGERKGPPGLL
Put plainly: Whole cell guanylyl cyclase (cGMP) assay, NPR-B. The format is cell-based. Details: expressed in transfected cells. The settings on record: for EC50: NC2st variants without signal sequence; for EC50 / % Efficiency / EC50 Ratio versus CNP22 / Rescue Ratio versus CNP22: NPR-B whole cell cGMP assay; for % Efficiency / EC50 Ratio versus CNP22 / Rescue Ratio versus CNP22: NC2st variants; for Rescue range: concentration producing cGMP as 2.4 nM (lower) and 14 nM (high) CNP22, X: cannot be determined; for potency compared with NC2B: whole cell cGMP assay (FIGS. 37A, 37B). The method, then:
HEK293S cells in a semi-confluent 75 cm2 flask are transfected with 30 μg of plasmid DNA coding for the appropriate receptor, e.g., human NPR-B or NPR-A, using Lipofectamine-2000CD. Alternatively, a stable polyclonal HEK293 S cell line expressing either human NPR-B or NPR-A was used. 24 hours after transfection, cells are trypsinized and plated into 48-well plates at 1×10^5 cells/well. Guanylyl cyclase assay is carried out 24 hours post-plating. Cells are first incubated for 30 minutes at 37° C. with serum-free DMEM medium. Then, they are incubated in triplicate with or without increasing concentrations of reference or test proteins in serum-free DMEM supplemented with 1 mM IBMX and 0.5% BSA, at 37° C. for 30 minutes to one hour. CNP serves as a suitable reference for NPR-B, while ANP is a suitable reference for NPR-A. Finally, cells are washed with ice-cold PBS and solubilized in lysis buffer from Catchpoint cGMP kit (Molecular devices). Concentrations of cGMP in lysate are determined using the Catchpoint cGMP kit. Dose-response curves are analysed with GraphPad Prism 5 software using non-linear regression with four-parameter logistic equation.

Data set [2] addresses neutral endopeptidase (NEP) (Homo sapiens, UniProt P08473).
Chain of UniProt P08473 (P08473 whole entry): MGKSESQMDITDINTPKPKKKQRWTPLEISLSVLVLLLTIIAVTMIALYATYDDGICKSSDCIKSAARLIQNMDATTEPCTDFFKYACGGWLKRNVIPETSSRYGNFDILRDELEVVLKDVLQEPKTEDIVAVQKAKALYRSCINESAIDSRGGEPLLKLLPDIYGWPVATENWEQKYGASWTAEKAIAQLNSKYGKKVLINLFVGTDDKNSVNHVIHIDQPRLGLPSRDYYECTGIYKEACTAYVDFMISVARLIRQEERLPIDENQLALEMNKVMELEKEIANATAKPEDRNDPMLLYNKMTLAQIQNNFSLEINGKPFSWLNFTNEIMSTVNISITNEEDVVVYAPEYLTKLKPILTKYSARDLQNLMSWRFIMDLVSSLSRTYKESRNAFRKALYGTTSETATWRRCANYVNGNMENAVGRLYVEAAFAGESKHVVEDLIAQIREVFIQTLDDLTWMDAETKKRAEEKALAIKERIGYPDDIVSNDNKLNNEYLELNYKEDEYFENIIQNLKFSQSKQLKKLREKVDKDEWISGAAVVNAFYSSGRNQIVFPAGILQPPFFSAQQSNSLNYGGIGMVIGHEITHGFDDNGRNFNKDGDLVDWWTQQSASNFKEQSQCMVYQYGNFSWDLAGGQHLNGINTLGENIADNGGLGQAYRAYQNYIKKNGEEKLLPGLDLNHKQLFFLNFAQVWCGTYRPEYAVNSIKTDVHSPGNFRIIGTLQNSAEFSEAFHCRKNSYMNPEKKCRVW
For data set [3], the target named is NPR-B (Homo sapiens, UniProt P20594). Briefly: EC50 (nM). An excerpt:
Head of the field: EC50 (nM)
First copying reader's note: The table stands under a dose-response plot; according to the description the EC50 ratio and rescue ratio are relative to CNP22.

B1: D10-NC2: NC2 with D10 bone-targeting moiety; SEQ ID NO: 608 (protein)
chain: DDDDDDDDDD[not shown - human IgG1 Fc]GGGGSGGGGSGGGGSGGLSKGCFGLKLDRIGSMSGLGC
modifications: Synthetic Construct (D10-NC2 (w/o sig. seq.))
In the case of B1, in the data set with NPR-B [1], the EC50 was found to be 782 nM, the “% Efficiency” value was 80%, the “EC50 Ratio versus CNP22” value stood at 53.2 and the “Rescue Ratio versus CNP22” value was found to be 69 ± 23. Besides, the Rescue range with NPR-B [1] fell in the range of 157 to 1023 nM.

B2: NC2-KGANKK: NC2st variant, Fc-CNP fusion with KGANKK; SEQ ID NO: 512 (protein)
chain: [not shown - human IgG1 Fc]GGGGSGGGGSKGANKKGLSKGCFGLKLDRIGSMSGLGC
modifications: Synthetic Construct (NC2-KGANKK (w/o sig. seq.))
For B2, in data set [2], the “reduction of ability to generate cGMP after incubation with purified NEP” value was “comparable levels of cGMP”. Besides, in the data set with NPR-B [3], the EC50 was 28.8 nM. Besides, in the data set with NPR-B [1], the “% Efficiency” value was found to be 115%, the “EC50 Ratio versus CNP22” value is 1.97, the “Rescue Ratio versus CNP22” value came out at 2.0 ± 0.8 and the Rescue range is 4.8 to 29 nM. For the same molecule, the “potency compared with NC2B” value with NPR-B [1] is “improved potency compared to NC2B; also recorded: the most potent of all the proteins provided in FIG. 37A”.

B3: NC2-KGANQK: NC2st variant; SEQ ID NO: 514 (protein)
chain: [not shown - human IgG1 Fc]GGGGSGGGGSKGANQKGLSKGCFGLKLDRIGSMSGLGC
modifications: Synthetic Construct (NC2-KGANQK (w/o sig. seq.))
Turning to B3, the EC50 in the data set with NPR-B [3] was determined as 100 nM. In the data set with NPR-B [1], a half-maximal response (EC50) required 167 nM, the “% Efficiency” value came to 98%, the “EC50 Ratio versus CNP22” value turned out to be 11.4 and the “Rescue Ratio versus CNP22” value is on record as 13 ± 2.4. In the data set with NPR-B [1], the Rescue range lay in the range of 29 to 187 nM and the “potency compared with NC2B” value is listed as “improved potency compared to NC2B”.
